Reference: PMC4632185
Positions count from the first letter of the chain named. These are yes or no findings as the source states them, for the method shown. Some entries that bind do so weakly or less than the wild type. For some assays here: Where a sequence is shown, tags or fusion partners need not be part of it.

The chains behind the UniProt entries cited, without tags or fusion partners. Where a name states a change or a piece, a line headed by the entry shows the natural chain unless it says otherwise.
UniProt Q8TDX7: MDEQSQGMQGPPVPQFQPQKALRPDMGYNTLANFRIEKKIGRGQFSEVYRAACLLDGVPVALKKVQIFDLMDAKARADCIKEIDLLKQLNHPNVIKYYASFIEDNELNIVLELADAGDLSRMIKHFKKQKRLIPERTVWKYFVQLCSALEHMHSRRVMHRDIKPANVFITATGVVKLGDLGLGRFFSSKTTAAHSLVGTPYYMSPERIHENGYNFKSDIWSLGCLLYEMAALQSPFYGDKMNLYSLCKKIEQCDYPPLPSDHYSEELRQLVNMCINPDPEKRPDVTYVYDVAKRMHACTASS

How the values were obtained:
GST-Nek9 810–828 (human) = biological target: T1, GST-Nek9 810–828 (human) (UniProt Q8TD19); test: pull-down; GST co-precipitation: 100 μg GST-Nek9 protein immobilised on glutathione sepharose-4B beads, incubated with 100 μg Nek7 in 500 μl for 1 h at 4 °C; 50 mM HEPES pH 7.5, 300 mM NaCl, 5% glycerol, 5 mM dithiothreitol, 0.05% Tween-20; Coomassie staining or immunoblot with α-His6; both …
T1 sequence: GWLRKELENAEFIPMPDSP

[1] = biological target: T2, GST-Nek9-CTD (aa 726–979) (human) (UniProt Q8TD19); test: as above
T2 sequence: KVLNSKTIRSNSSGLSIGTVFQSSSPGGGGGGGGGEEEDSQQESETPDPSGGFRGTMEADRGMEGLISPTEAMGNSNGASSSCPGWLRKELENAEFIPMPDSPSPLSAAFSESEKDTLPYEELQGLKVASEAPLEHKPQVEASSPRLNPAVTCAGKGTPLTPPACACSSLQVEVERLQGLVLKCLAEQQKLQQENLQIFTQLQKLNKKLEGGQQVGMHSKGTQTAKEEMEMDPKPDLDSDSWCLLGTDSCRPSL

[2] = biological target: T3, GST-Nek9-CTD C808A (human) (UniProt Q8TD19); test: as above
T3 sequence: T2 sequence with C83A

[3] = biological target: T4, GST-Nek9-CTD F821A (human) (UniProt Q8TD19); test: as above
T4 sequence: T2 sequence with F96A

[4] = biological target: T5, GST-Nek9-CTD I822A (human) (UniProt Q8TD19); test: as above
T5 sequence: T2 sequence with I97A

[5] = biological target: T6, GST-Nek9-CTD L812A (human) (UniProt Q8TD19); test: as above
T6 sequence: T2 sequence with L87A

[6] = biological target: T7, GST-Nek9-CTD L816A (human) (UniProt Q8TD19); test: as above
T7 sequence: T2 sequence with L91A

[7] = biological target: T8, GST-Nek9-CTD M824A (human) (UniProt Q8TD19); test: as above
T8 sequence: T2 sequence with M99A

[8] = biological target: T9, GST-Nek9-CTD P809A (human) (UniProt Q8TD19); test: as above
T9 sequence: T2 sequence with P84A

[9] = biological target: T10, GST-Nek9-CTD P825A (human) (UniProt Q8TD19); test: as above
T10 sequence: T2 sequence with P100A

[10] = biological target: T11, GST-Nek9-CTD W811A (human) (UniProt Q8TD19); test: as above
T11 sequence: T2 sequence with W86A

[11] = biological target: Nek7^Y97A, full length (human) (UniProt Q8TDX7); test: SEC; size-exclusion chromatography on purification (Superdex-200 16/60, 50 mM HEPES pH 7.5, 300 mM NaCl, 5% glycerol, 5 mM dithiothreitol); both purified

For “Nek7 L132D (from UniProt Q8TDX7 1-302) (enzyme)”, the binding (GST-Nek9 810–828 (human)) was “no binding (tested: 100 μg Nek7 in 500 μl buffer)” and the binding [1] was “no binding (tested: 100 μg Nek7 in 500 μl buffer)”.

For “Nek7 R131A (from UniProt Q8TDX7 1-302) (enzyme)”, the binding (GST-Nek9 810–828 (human)) was “no binding (tested: 100 μg Nek7 in 500 μl buffer)” and the binding [1] was “no binding (tested: 100 μg Nek7 in 500 μl buffer)”.

“Nek7-His6, full-length wild type, unphosphorylated (from UniProt Q8TDX7 1-302) (enzyme)” was tested, and the binding [2] was “binds”, the binding [3] was “no binding (tested: 100 μg Nek7 in 500 μl buffer)” and the binding [4] was “no binding (tested: 100 μg Nek7 in 500 μl buffer)”. The binding [5] was “no binding (tested: 100 μg Nek7 in 500 μl buffer)”, the binding [6] was “no binding (tested: 100 μg Nek7 in 500 μl buffer)” and the binding [7] was “binds”. For the same substance, the binding [8] was “no binding (tested: 100 μg Nek7 in 500 μl buffer)”, the binding [9] was “binds” and the binding [10] was “no binding (tested: 100 μg Nek7 in 500 μl buffer)”.

“Nek7^Y97A, full length (from UniProt Q8TDX7 1-302) (enzyme)” was tested, and the binding [11] was “no binding”.
